Data reported in US20200299342A1 (published 2020).
Where a chain is given by its changes, count along the chain named. Blank lines part the entries; values can stand above or below the binder they belong to.

How the values were obtained:
Skp1 M36A = test: ELISA
Skp1 M30A = test: ELISA
Skp1 D111R = test: ELISA
Skp1 P46A = test: ELISA
Skp1 L116A = test: ELISA
Fbw7 L288A = test: ELISA
Fbw7 E287L = test: ELISA
Skp1 Y109A = test: ELISA
Skp1 P48A = test: ELISA
Fbw7 Y291R = test: ELISA
Skp1-F-box^Fbw7 complex [1] = molecular target: T1, Skp1-F-box^Fbw7 complex (UniProt P63208 1-163); test: competitive ELISA; WB
Skp1-F-box^Fbw7 complex [2] = molecular target: T1, Skp1-F-box^Fbw7 complex; test: competitive ELISA
Skp1-F-box^Fbw2 complex = Skp1-F-box^Fbw2 complex (UniProt P63208 1-163); test: competitive ELISA
Skp1 N108A = test: ELISA
Skp1-F-box^Fbw7 complex [3] = molecular target: T1, Skp1-F-box^Fbw7 complex; test: SPR

EC50 (Skp1 M36A): 13 nM | EC50 (Skp1 M30A): 3 nM | EC50 (Skp1 D111R): 670 nM | EC50 (Skp1 P46A): 12 nM | EC50 (Skp1 L116A): 19 nM | EC50 (Fbw7 L288A): 110 nM | EC50 (Fbw7 E287L): 1.7 nM | EC50 (Skp1 Y109A): 13 nM | EC50 (Skp1 P48A): 1.1 nM | EC50 (Fbw7 Y291R): 35 nM | IC50 (Skp1-F-box^Fbw7 complex [1]): > 5000 nM
B1: Ubv.Fw7.1 (designed binder)
chain: MAHHHHHHVTSLYKKAGDYKDDDDKMQIFVKTGARTAITLEVEPSDTIENVKAKIQDKEGIPPDQQILIFSRKLLEDGRTLSDYNIHRESTLRLVLIFRGNES

IC50 (Skp1-F-box^Fbw7 complex [2]): 110 nM
B2: Ubv.Fw7.7 (designed binder)
chain: MAHHHHHHVTSLYKKAGDYKDDDDKMQIFVKTGARTGITLEVEPSDTIENVKAKIQDKEGIPPDQQRLIFAGRRLEDGRTLSDYNIQKESTLRLVYVFRRG

IC50 (Skp1-F-box^Fbw7 complex [2]): 170 nM
B3: Ubv.Fw7.14 (designed binder)
chain: MAHHHHHHVTSLYKKAGDYKDDDDKMQIFVKTGARTAITLEVEPSDTIENVKAKIQDKDGIPPDQQVLLFRRKKLEDGRTLSDYNIQKESTLRLLWIVRRG

IC50 (Skp1-F-box^Fbw7 complex [2]): 170 nM
B4: Ubv.Fw7.13 (designed binder)
chain: MAHHHHHHVTSLYKKAGDYKDDDDKMQIFVKTGSRTGITLEVEPSDTIENVKAKIQDKGGIPPDQQILLFSRKRLEDGRTLSDYNIQKESTLRLVLIFSGA

IC50 (Skp1-F-box^Fbw7 complex [2]): 110 nM
B5: Ubv.Fw7.9 (designed binder)
chain: B2 chain with R67I, A71S, G72R, R73K, Y96M, R99S, R100K

IC50 (Skp1-F-box^Fbw7 complex [2]): 120 nM
B6: Ubv.Fw7.10 (designed binder)
chain: B3 chain with A34T, A37G, D59E, R71S, K74V, L95V, I97L, V98L

IC50 (Skp1-F-box^Fbw2 complex): 760 nM
B7: Ubv.Fw7.5 (designed binder)
chain: B2 chain with R67V, A71S, G72R, R73K, Y96L, R99G, G101R

IC50 (Skp1-F-box^Fbw7 complex [2]): 180 nM
B8: Ubv.Fw7.15 (designed binder)
chain: B4 chain with S34A, G59E, L69I, R72H, K73M, A101G

IC50 (Skp1-F-box^Fbw7 complex [2]): 210 nM
B9: Ubv.Fw7.17 (designed binder)
chain: B2 chain with E59G, R73K, T91S, Y96L, V97I, R100G

IC50 (Skp1-F-box^Fbw7 complex [2]): 80 nM
B10: Ubv.Fw7.6 (designed binder)
chain: B4 chain with S34A, G59E, L69I, S99P, G100S, A101G

IC50 (Skp1-F-box^Fbw7 complex [2]): 210 nM
B11: Ubv.Fw7.16 (designed binder)
chain: B4 chain with S34A, R74P, L96V, I97V, S99R, G100R, A101G

IC50 (Skp1-F-box^Fbw7 complex [2]): 130 nM
B12: Ubv.Fw7.11 (designed binder)
chain: B3 chain with D59G, L69I, R71S, R72K, K74R, L95V, W96L, V98F

IC50 (Skp1-F-box^Fbw7 complex [2]): 310 nM
B13: Ubv.Fw7.18 (designed binder)
chain: B2 chain with G37A, A71S, G72R, R73K, Y96L, V97L, R99P, R100G

EC50 (Skp1 M36A): 11 nM | EC50 (Skp1 M30A): 9 nM | EC50 (Skp1 P46A): 13 nM | EC50 (Skp1 L116A): 7 nM | EC50 (Fbw7 L288A): 8 nM | EC50 (Fbw7 E287L): 18 nM | EC50 (Skp1 P48A): 18 nM | EC50 (Skp1 N108A): 16 nM | EC50 (Fbw7 Y291R): 16 nM
B14: Cul1 NTD (other)
chain: MGSSHHHHHHSSGRENLYFQGHMDYKDDDDKMSSTRSQNPHGLKQIGLDQIWDDLRAGIQQVYTRQSMAKSRYMELYTHVYNYCTSVHQSNQARGAGVPPSKSKKGQTPGGAQFVGLELYKRLKEFLKNYLTNLLKDGEDLMDESVLKFYTQQWEDYRFSSKVLNGICAYLNRHWVRRECDEGRKGIYEIYSLALVTWRDCLFRPLNKQVTNAVLKLIEKERNGETINTRLISGVVQSYVELGLNEDDAFAKGPTLTVYKESFESQFLADTERFYTRESTEFLQQNPVTEYMKKAEARLLEEQRRVQVYLHESTQDELARKCEQVLIEKHLEIFHTEFQNLLDADKNEDLGRMYNLVSRIQDGLGELKKLLETHIHNQGLAAIEKCGEAALNDPKMYDQTVEDVHKKYNALVMSAFNNDAGFVAALDKACGRFINNNAVTK

Kd (Skp1-F-box^Fbw7 complex [3]): 0.0044 nM
B15: Cul1 N-terminal domain (NTD) (other)
chain: B14 chain
